Test results as given in the supplement of paper PMC3334620.
In all, about 33,000 sequences were measured (“E-score (-0.5 to 0.5)”: median about -0.056, highest 2% from about 0.38 on). The list shows a part of the results.

Molecular target: Stb4 (UniProt P50104)
Assay: PBM E-score (8-mer binding enrichment) (E-score (-0.5 to 0.5)); higher = stronger / more preferred TF binding; most listed sequences are background and not binding sites
Conditions: protein concentration: 200 nM; construct: GST-DNA-binding domain
Experimental: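 Universal 'all 10-mer' protein binding microarrays (Agilent AMADID 015681) probed with GST-tagged S. cerevisiae TFs (full-length or DBD) made by in vitro transcription/translation (PURExpress), about 100-200 nM. Bound TF was detected with fluorescent anti-GST. Each ungapped 8-mer (which stands for itself and its reverse complement) is scored by the PBM enrichment score (E-score), a modified Wilcoxon-Mann-Whitney statistic from -0.5 to +0.5, computed with the Universal PBM Analysis Suite. Scale: above 0.35 generally sequence-specific binding.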

Sequence	PBM E-score
ATGGACAC	-0.175
AGATCTAG	-0.255
AGCATACT	-0.166
ATTTGATA	-0.106
CTCGTACC	0.0299
CCATACTA	-0.0666
GCCTCGAC	-0.251
ACGTAAGG	-0.309
AGTGGGAG	-0.244
AGTGTCGC	0.00342
ATAGATAT	0.0746
ACAACCTG	-0.288
ATACACCA	-0.154
GGCACACC	0.0691
CGACTAAG	0.0544
ATTTTCCC	0.0682
GTATTTAA	-0.0662
TCTACGAA	-0.192
TCTGCAGA	-0.303
CCCTAGAA	-0.216
CAGAACGG	0.0906
ACACGTAT	-0.165
CGTCCCGA	0.402
CTACCGAC	0.278
AAAACGGT	-0.164

Sequence	PBM E-score
GCCCAGCC	-0.0549
ATTTTGAC	0.00768
AACCACCC	0.159
ACTGATCC	-0.0314
GACTATAA	-0.162
AATCACAG	-0.269
CAATTACG	-0.133
CTGAAACC	0.117
AAACAAAT	-0.0369
GCAAAACC	0.0298
AGAATGTA	-0.0835
CCCGAACA	0.393
GGTTGCAA	-0.0593
AAGTACCT	-0.175
CGAAATTC	0.236
ACGATCAC	-0.168
ATGCTGGC	-0.286
AACTGCTT	-0.213
CGGAAATA	0.429
ATTGGTTA	-0.0832
AATAGCCC	-0.12
ACGCCGCG	0.042
TACGCGGA	0.201
GCCCCCCA	-0.177
ATGCTGCA	-0.168

Sequence	PBM E-score
ACTTTTCT	-0.157
GCTACAGC	0.0338
ACTGCCGA	0.407
CACACAAC	-0.109
AAACAGTT	-0.0803
GATTGGCC	-0.0876
ACGCACTC	-0.0152
AGTAGCAT	0.00303
AAACTTGA	-0.205
AAGACTCA	-0.324
AGTTGCAA	-0.126
ATGATACA	-0.127
AAATACTT	0.038
GGCGTAAC	-0.135
ACATACGC	0.141
AATAATGG	-0.0111
TAACTAGA	0.059
CAATCACG	0.0651
TGTAAGAA	0.101
ATAAACAG	-0.0548
CGGTTATC	0.316
GGTAGATA	0.18
AACCCGCT	0.0984
ACTGAATA	-0.0162
CGAGGTAA	0.127

Sequence	PBM E-score
TCCGGCAA	0.347
CTTAGGTA	-0.101
AGAGACCA	-0.167
AACGACTA	-0.151
GTCCTAGA	-0.0562
TGACGTCA	-0.158
AAACCATG	0.108
ATCATAGC	0.0151
AGAACAGC	-0.172
GAACTACC	0.161
CTAATCTA	-0.153
CTGCTGAC	-0.102
GAACACGC	0.11
CTATGGGA	-0.104
AAGTGCCC	0.0188
ACCTTTCA	-0.0291
ACGCGGCG	0.121
GACGATCC	0.217
CTCCAATC	-0.189
ATATTGTC	0.123
CAGACACG	0.111
GCCCAACC	-0.0407
AACGTGTG	-0.286
ATGCTAAG	-0.0968
AAGAGCCT	-0.313

Sequence	PBM E-score
ACGCTCAC	-0.0276
GTCAGATA	-0.156
CTGATTGC	-0.03
GATACAGC	0.175
TCTTAAGA	-0.264
CTCGGAGA	0.406
AAATCGGG	0.317
ATATCTAA	-0.198
AGTTAATA	0.073
AGACAGCT	-0.309
CTCACCGC	-0.257
GCACCCGC	0.285
CGAATCGC	-0.0319
AGGGTGAT	-0.0632
CGCAAAAC	-0.00182
ACTGCACT	-0.162
CACGAATG	-0.254
CTTGAGAC	-0.034
CATGACCG	-0.104
AGACCTCT	-0.146
ACGCCTTC	-5e-05
ATAGGTAA	-0.158
CATCGTCG	-0.0404
ACTGCACA	-0.102
ATGCCCAT	-0.255

Sequence	PBM E-score
CGAAGACC	0.0393
CTTTGAGC	-0.151
AGTCGCCA	-0.166
CTCTTAAG	-0.211
ATCCCCGG	0.319
ATCCTGCG	-0.117
CATTATTC	0.0794
TCCTTCCA	-0.102
GGGAAGAA	0.0883
ATAGGTCG	0.117
ACACAAGG	-0.281
ACGAGCTG	-0.126
CCATAGGC	-0.0733
CAAGCGCA	-0.0164
CTTCTGAC	-0.286
ATCACAGG	-0.225
ACATGAAC	-0.0936
TGCTCCAA	-0.154
TCTCGTAA	0.00218
GTATTCAC	0.174
AAACGTAC	-0.132
ATGCTACG	-0.0991
CCCAGTCG	0.0802
ATACGTAG	-0.231
GTTCTGCA	-0.0879

Sequence	PBM E-score
GAGCATAA	0.175
AAATTTAA	0.0055
AATTTCTG	-0.127
ACTCAGCC	-0.0292
CCGTGCTA	0.0858
CTCATAAC	0.0481
ATGACAAT	-0.0174
ACCGGCGT	0.0666
ATGAATGC	-0.145
TCGCTACA	-0.322
CCACCAAC	0.00817
TAAAGACA	-0.235
GAATGCTC	-0.108
CGCCTCTC	-0.167
CAGGCTGA	-0.0668
AATCTAGT	0.143
AGGGGGAA	-0.293
ACTTCTTC	-0.026
AAGGTCAC	-0.215
CCCCTCTA	-0.18
CCTGCTGA	-0.163
TCAGAAAA	-0.356
GAGCAAGC	-0.0432
AACTACAG	-0.0338
TACGGTGA	-0.251

Sequence	PBM E-score
CGCCCTCC	0.0375
AGCGGGCC	0.0413
GCCAGGGC	-0.132
CTCTGCCC	-0.215
AAGGACTA	-0.209
CTCAGCAG	-0.231
CGTTCACA	-0.0233
CCGAACAA	0.425
AAGGTTGA	-0.137
CACCAGGA	-0.0574
CGGATGAC	0.328
CTCTGAAC	-0.174
CGCATTGA	0.0657
ATTCAGGG	-0.144
CGTATTAC	0.0881
GACCCTAA	-0.0535
GAGTTTAA	0.0814
CGCTTGAC	-0.15
GGCCCTGA	-0.217
TATGTTAA	-0.0728
CGCGACTA	0.0456
CGCTCTAA	-0.0936
GACGAGAC	-0.0141
AAAAGACT	-0.227
AATGTCAT	0.0487

Sequence	PBM E-score
TACTTGGA	-0.185
ATACAGCA	-0.0487
CAGCCGGG	0.237
GTGACGGA	0.214
ACTAGCGG	-0.0195
GGTGAAGA	-0.14
ATCGGACG	0.289
CAAGGAAA	-0.0655
TAGAGTCA	-0.256
ATGCTCCC	-0.0169
GTTTTCCA	-0.00305
CCCACTCG	0.0329
ATTAGTTC	0.0663
ACCTTTCC	0.256
CGAGGGGC	-0.00304
CGCAGGAC	-0.13
CATATATG	-0.187
TAGGCTGA	-0.179
AAAAGTTG	-0.0801
TAGGGCCA	-0.245
ACCGTCAG	-0.0659
CAAACTCA	-0.087
CGCCAATC	0.0166
AACAGTTG	-0.247
ATTAGCGC	-0.0934

Sequence	PBM E-score
ACCCGCCT	0.0418
AAGGACTC	0.127
AAACGTAG	-0.228
ACCTTTTG	-0.0261
CGGAAACG	0.384
AGTGAGGG	-0.138
CTCCAGTC	-0.0791
ACGGCATA	0.0191
ATCCACTC	0.0789
TCGAGCCA	-0.204
CTTCGTAC	-0.0477
ACCTAACT	0.0483
GATGTGGA	0.0581
GAATCCGA	0.4
AGGTGAAC	-0.149
CTACAAAC	-0.154
GACCCCCA	-0.0615
CCTCAACG	-0.201
ATCATTCC	0.184
CTAGCCAG	-0.23
AAGCACAA	-0.165
CAGCATTA	-0.149
AATCTCGC	-0.0297
AACTTTTG	-0.145
GGCTATAC	0.103

Sequence	PBM E-score
GCAATTAA	-0.0341
AAGGAGAG	-0.344
CAAACATA	-0.267
ACGTGATC	-0.0864
ATGTTCGG	0.392
AGACCAAA	-0.0554
CTATACTA	-0.0232
CGCTGGGC	-0.133
ACAAATAA	-0.0319
CCACTCGC	-0.0766
CAGTCGGG	0.275
TACGCACA	-0.252
GGACCTGA	-0.0475
AAAGCTAA	-0.0735
ATGCAGGG	-0.0938
AGGTCCGC	0.0848
CGATCGCA	0.0279
ATATCCGG	0.424
CCTGGTTA	-0.222
ACAAATTG	-0.0196
TCTCAGCA	-0.233
GTACGCGA	-0.273
GCTATCAC	-0.18
TGGCCACA	-0.18
ATCCGTTA	0.319

Sequence	PBM E-score
AGTAATCA	-0.0147
AGGATGCA	-0.103
GAACGCAC	-0.0275
ACGTCCTA	0.0106
CAAAGACA	-0.079
TATTCGGA	0.426
CGACCGAC	0.121
TGGGCGAA	-0.204
GAACCGGA	0.312
ATATGACA	-0.0926
ATGTTGGG	-0.109
CATGGCGA	-0.0876
CTACCACA	-0.106
CCGCCTGC	0.0101
CCACTCAA	-0.312
GGGGGAGA	0.0539
GCTAGGCA	-0.00335
ACACCTTC	0.0194
ATTCGACA	-0.0865
AGCCGCGG	0.315
AGGACGGC	-0.144
TACAGCAA	-0.0927
AACCCTTA	-0.253
CGGGTTCC	0.325
AACTGAAC	-0.0228

Sequence	PBM E-score
AGGAAGGA	-0.282
CATAAAAC	-0.0872
CCAGCTGA	-0.191
CGTCTGGC	-0.00711
CTACGCAG	-0.144
GCTGTAAA	-0.263
ATCGCAGC	-0.00257
CCGGCAGC	0.245
AGGCTCCG	0.26
ATACACAA	-0.146
AAACGGGG	0.00631
GTCGCCAA	-0.147
GAATTTAA	-0.0336
TCACAACA	-0.129
CACCAACA	-0.221
AGTGGCTC	-0.032
CATCTGTA	-0.0698
AAGAACTA	0.0277
AGGTACAG	-0.315
TAGAAACA	-0.14
TCGAGTCA	-0.257
GATATTGA	0.044
CGTCTTAG	-0.201
ATAGCAGG	0.0509
CGCTGTAG	-0.107

Sequence	PBM E-score
AACTCAGG	-0.213
GACCAGAC	-0.119
ACGCGGAG	0.207
CGGTCCCC	0.141
AGGAGATA	-0.234
GGGCCGTA	0.124
ACCCAGAA	-0.109
AAATTAGG	0.0961
AGGACTAC	-0.0483
AATAATTC	0.142
ATCCCTGC	-0.0899
ATAATGAA	-0.0859
ATTTAGGA	-0.168
AAGAGTCC	-0.0539
CAGGCACC	-0.218
GCCTCTGA	-0.229
CTCGTCAG	-0.183
ACATGCCA	-0.109
CCGCTCTC	-0.00245
